# According to the supplement of paper PMC11417369:
# ± gives the standard deviation of the averaged measurements. Some of the results follow.
# System: PfAP2-EXP AP2 domain (GST-tagged)
# Assay: gcPBM binding intensity (ln(normalized median fluorescence intensity)); higher = stronger DNA binding
# Outline: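 GST-fused DNA-binding domains of P. falciparum, expressed in E. coli, were applied at about 25 μg on average for 1 h to an Agilent 4 × 180k array of primer-extended double-stranded 36-bp intergenic genomic probes and negative controls. Binding intensity is the highest Masliner-normalised natural-log median intensity across replicate spots of either probe orientation, measured with Alexa488 anti-GST antibody and a 488 nm scan.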
row,Sequence,gcPBM binding intensity (ln)
1,ATGTAAAAATAAAGATGTACATGTATATATATATAT [XGTACX_site5193],10.1 ± 0.24
2,CCTATAATTAGGGGTAGTACACAAAAAAAAAAAAAA [XGTACX_site6396],8.37 ± 0.49
3,AATATATATTCATGTGTACACACAAAAAAAAATAAA [CACACA_site8690],8.77 ± 0.31
4,TTAAAAAAGAATTGTGCACACACAAAAAATGTTCAT [CACACA_site1102],8.46 ± 0.29
5,AATTCCTTATACAATTGTACATAAAAAGAATAAAAA [XGTACX_site1343],8.67 ± 0.41
6,CATTTTTTAAGCATCACACACGAAAGAACAAAGTGG [CACACA_site4755],9.04 ± 0.58
7,TTTTTTTTTTTAAGGTGTACAATAAAAATTTATGCA [XGTACX_site8860],8.52 ± 0.18
8,TGGAAAATTATAAGGTGTACATATAAGCTATTATAT [XGTACX_site118],8.59 ± 0.35
9,CATATATAAAATATATGTACTTATAGAACATAATTT [XGTACX_site1936],8.1 ± 0.26
10,TAATAAGTATAAAATAGTACATATAAATATATCAAA [XGTACX_site8834],8.48 ± 0.38
11,AGGAATAAATAATTAACACACACAATCTTTTTTTTT [CACACA_site9027],8.39 ± 0.31
12,ATAATATTAGTAAACACACTCAAATTATATATGATA [CACACA_site5721],8.28 ± 0.59
13,AAATAAAAAAACTATTGTACTGAATACAAATTAAAT [XGTACX_site3793],8.52 ± 0.35
14,ACTTTTTCACATAAAAATGATCCGATTAGTAATAAT [XGTACX_negctrl_site248],8.49 ± 0.59
15,AGTATACATTCATTTTGTACTCAATGATTTGATAAC [XGTACX_site6787],8.55 ± 0.46
16,ATAATTATATTCCATACACACATATATTTAAAGGTT [CACACA_site2957],8.59 ± 0.33
17,TAAATAAATACATACACACACATACATATATATATA [CACACA_site3129],9.86 ± 0.26
18,TTATTGTTTATTAAATGTACAGATTCGTTAAAATTA [XGTACX_site3041],8.47 ± 0.33
19,CTAGCAAATACATACACACACACACCCATACATATA [CACACA_site3496],8.64 ± 0.49
20,TATTTTTTTGTGTTTGGTACACACGTTATAAAAAAT [XGTACX_site2655],8.44 ± 0.26
21,ACAACAATATGGAATTGTACATATATATATAAATAT [XGTACX_site3139],8.56 ± 0.26
22,GAACAAATAAAAAGGAGTACAATCAAATCTACGTAT [XGTACX_site343],8.78 ± 0.57

row,Sequence,gcPBM binding intensity (ln)
1,TACACAAAACATAAAAGTACATAATAATAAAGTTAA [XGTACX_site8872],8.86 ± 0.39
2,TTATAATAAATATGAAGTACTATAAATATGGTATAT [XGTACX_site5448],8.55 ± 0.26
3,AATAAATATAGGAATACACACAATATAAATGTATTG [CACACA_site3366],8.4 ± 0.4
4,ATCGCATAAAGACAAGAACACACATATATATTGTAG [CACACA_site9229],8.55 ± 0.38
5,CACTAAAATGGACACACACACACACCGATATATATA [CACACA_site6139],8.79 ± 0.48
6,TTTTTATTGAGAACAGTGCAAATAACAAAAAAAAAA,9.07 ± 0.16
7,ATTTGGCATAAACACACACACACACCCACCCACATA [CACACA_site8096],9.17 ± 0.64
8,AACAAATAAGATAAATGACTTAACAAAAGAAAAAAG [CACACA_negctrl_site1409],8.76 ± 0.47
9,TTTTAATTATATTATGCACACACAATTGGAAAAAAA [CACACA_site8598],8.71 ± 0.12
10,GTAAAAAATATGAATACACACATAAAGGAAATAACA [CACACA_site1997],8.93 ± 0.3
11,AAAAAAAAAAAATTCACACACATATAAAAAATTAAG [CACACA_site728],8.39 ± 0.45
12,TTTTTTTTTTTTTTTTTTTTTTTTGGGTCCCATACA [CACACA_negctrl_site913],8.1 ± 0.47
13,TAATATATAAGTATTTGTACATATTCATTCATCTAT [XGTACX_site2935],8.37 ± 0.28
14,AAAAAAAAAAAAAAAAGTACAGACGTCAAAAAAAAA [XGTACX_site4817],8.89 ± 0.092
15,CACTATCAATATATATGTACATATATATATATATAT [XGTACX_site7854],10.1 ± 0.46
16,GTCACATTGTTATATTGTACAAATGTCGTTCTTTTT [XGTACX_site8098],8.86 ± 0.37
17,ATATAAAAATATATTAATATAAATAAATGGACATAT [XGTACX_negctrl_site488],8.73 ± 0.36
18,TAAATATATAAATACACACAAACATACATATATATA [CACACA_site4050],8.78 ± 0.29
19,CTTATACATTATTAACGTACATGTTATATGAATAAC [XGTACX_site5752],8.48 ± 0.21
20,AACATTATAGGACACACACACACATATATATATATA [CACACA_site4721],10.3 ± 0.13
21,TTTTTTTTTTTTTTTTTTTTTTTTAAATGCTTCTAA [TGCATGCA_negctrl_site253],7.84 ± 0.3
22,CATTATGTTGTAAATACACACATACCTATACATACA [CACACA_site6485],8.56 ± 0.4
